Data taken from PubChem BioAssay AID504332 (National Center for Advancing Translational Sciences (NCATS), 2011).
Among all 350,000 compounds or so, about 31,000 (8.9%) were called active. Inconclusive results, whose numbers are uncertain, are shown with a selection of clear calls. Calls follow the shape of the dose curve; as a rule, active = well fitted inhibition curve with a large enough effect; inconclusive = small, poorly fitted or top-dose-only effect; inactive = no such curve, though single readings can be large or run the other way. Potencies of inconclusive entries are doubtful fits and often do not repeat.

target: Histone-lysine N-methyltransferase EHMT2 (Homo sapiens) (UniProt Q96KQ7); assay: qHTS Assay for Inhibitors of Histone Lysine Methyltransferase G9a; details: G9a H3K9 monomethylation, AlphaScreen, 2 h; activity, negative = inhibition: at 59 µM (top of the series) unless noted; also: nearly all actives have a fitted effect of over 75% in size
Method in brief: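 Readings reflect AlphaScreen signal from monomethyl-H3K9 antibody detection. HMT at 20 nM; substrate b-H3K9 500 nM; cofactor SAM 20 uM; 2 h RT reaction; compounds tested as titrations in qHTS with 15 min preincubation.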
% is scaled to controls: 0 for no effect and ±100 for the full control effect; potency is read from the fitted curve at half-maximal effect; tags tell the direction and shape of the fitted curve.

UniProt Q96KQ7, sequence (Q96KQ7 whole entry, looked up): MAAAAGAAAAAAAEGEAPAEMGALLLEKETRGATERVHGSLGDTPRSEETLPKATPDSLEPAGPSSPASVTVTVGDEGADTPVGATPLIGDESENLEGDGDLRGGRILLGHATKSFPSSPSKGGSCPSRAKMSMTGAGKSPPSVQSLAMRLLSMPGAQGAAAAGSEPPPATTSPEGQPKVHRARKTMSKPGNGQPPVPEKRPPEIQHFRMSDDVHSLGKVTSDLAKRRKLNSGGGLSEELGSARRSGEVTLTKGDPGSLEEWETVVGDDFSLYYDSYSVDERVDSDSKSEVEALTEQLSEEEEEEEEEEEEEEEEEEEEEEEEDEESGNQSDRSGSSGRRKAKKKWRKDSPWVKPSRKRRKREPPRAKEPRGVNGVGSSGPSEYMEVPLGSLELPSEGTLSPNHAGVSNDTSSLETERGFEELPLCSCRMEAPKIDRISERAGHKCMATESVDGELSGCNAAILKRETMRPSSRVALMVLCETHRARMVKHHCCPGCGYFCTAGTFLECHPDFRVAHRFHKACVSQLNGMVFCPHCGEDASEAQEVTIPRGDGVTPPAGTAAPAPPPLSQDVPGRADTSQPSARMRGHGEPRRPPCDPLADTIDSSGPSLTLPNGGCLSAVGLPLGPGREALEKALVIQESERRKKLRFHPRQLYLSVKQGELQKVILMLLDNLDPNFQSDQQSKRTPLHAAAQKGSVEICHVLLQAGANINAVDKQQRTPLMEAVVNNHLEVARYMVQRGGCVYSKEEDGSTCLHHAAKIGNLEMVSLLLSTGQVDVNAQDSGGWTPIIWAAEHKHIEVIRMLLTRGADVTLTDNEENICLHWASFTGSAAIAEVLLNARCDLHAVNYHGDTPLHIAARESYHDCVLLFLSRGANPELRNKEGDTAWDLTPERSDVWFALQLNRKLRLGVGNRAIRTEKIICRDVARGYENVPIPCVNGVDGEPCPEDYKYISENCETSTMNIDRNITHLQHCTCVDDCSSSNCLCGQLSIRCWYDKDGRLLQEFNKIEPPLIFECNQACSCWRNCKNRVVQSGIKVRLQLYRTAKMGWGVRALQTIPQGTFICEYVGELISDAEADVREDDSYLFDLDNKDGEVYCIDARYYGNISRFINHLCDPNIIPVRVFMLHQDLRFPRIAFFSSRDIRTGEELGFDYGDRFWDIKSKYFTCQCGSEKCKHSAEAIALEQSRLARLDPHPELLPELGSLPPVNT

Structure (SMILES) | Potency | activity, negative = inhibition
COc1ccc(CNc2cc(C)nc3ccc(OC)cc23)cc1 | active: 35.5 µM | –
O=c1c2c3c(sc2nc2n1CCCCC2)CCCC3 | inconclusive: 39.8 µM [inhibitor, single point] | –
CC(=O)OC1c2c(ccc3ccc(=O)oc23)OC(C)(C)C1OC(=O)CC(C)C (stereo unspecified) | inconclusive: 31.6 µM [inhibitor, single point] | –
Cc1ccc2c(c1)C(C)(C)[C@]1(C)NC(=O)CCN21 | inconclusive: 89.1 µM [inhibitor, partial curve, poor fit] | –
COc1ccnc(Oc2ccccc2)c1C(=O)N/C=N/OCc1ccc(F)cc1Cl | inactive | –
CCOC(=O)C1=C(C)N=c2s/c(=C\c3cccc(OCC(=O)O)c3)c(=O)n2C1c1ccccc1 (stereo unspecified) | inconclusive: 20 µM [inhibitor, single point] | –
Cc1cccc(NC(=O)COC(=O)c2cccc3c2C(=O)c2ccccc2C3=O)c1C | inactive | –
Nc1c(C(=O)Nc2ccc(S(=O)(=O)N3CCCC3)cc2)sc2nc3ccc(OC(F)(F)F)cc3cc12 | inconclusive: 15.8 µM [inhibitor, single point] | –
CCOc1ccc(NC(=S)NNC(=O)c2cc(Br)ccc2Cl)cc1 | active: 44.7 µM | –
CCOC(=O)c1cnc2nc(NCc3cccc(Br)c3)[nH]n2c1=O | inconclusive: 11.2 µM [inhibitor, partial curve, poor fit] | –
O=C(CSc1nc(-c2ccccc2)c(-c2ccccc2)o1)Nc1nnc(-c2ccccc2)s1 | inconclusive: 22.4 µM [inhibitor, single point] | –
O=C(Nc1ccc(-c2csc(Nc3ccccc3)n2)cc1)c1ccccc1 | inconclusive: 89.1 µM [inhibitor, single point] | –
Nc1nonc1NC(=O)NN=C1CCCCC1 | inactive | –
COc1ccc(/C(C)=N/NC(=S)NCCc2ccccc2)c(O)c1 | inactive | –
CC1Sc2ccc(S(=O)(=O)CCC(=O)Nc3ccccn3)cc2NC1=O (stereo unspecified) | inactive | –
COc1ccc(NC(=O)Nc2ccc3c(c2)N(C)C(=O)CS3)cc1OC | inconclusive: 79.4 µM [inhibitor, single point] | –
COc1ccc2c(c1)Cc1sc(NC(=O)c3cccc(C)c3)nc1-2 | inconclusive: 31.6 µM [inhibitor, single point] | –
Cc1ccc(CNC(=O)C2COc3ccccc3C2)cc1 (stereo unspecified) | inactive | –
Cc1nnc(NCc2n[nH]c(=O)c3ccccc23)c2ccccc12 | inconclusive: 35.5 µM [inhibitor, single point] | –
O=[N+]([O-])c1ccc(CSc2ncnc3ccccc23)cc1 | inconclusive: 3.55 µM [inhibitor, full curve, poor fit] | –
CCc1ccc2oc(C(=O)NCCc3ccc(S(N)(=O)=O)cc3)cc(=O)c2c1 | inconclusive: 0.398 µM [inhibitor, partial curve, poor fit] | –
COc1cccc(NC(=O)CN(C)CC(=O)NC(C)c2ccccc2)c1 (stereo unspecified) | active: 70.8 µM | –
COc1ccc(/C=N/Nc2ccc(C(=O)O)cc2)c(OC)c1OC | inconclusive: 89.1 µM [inhibitor, single point] | –
CC1=C(C(=O)OC(C)C)C(c2cccs2)N2C(=O)CCSC2=N1 (stereo unspecified) | inactive | –

Structure (SMILES) | Potency | activity, negative = inhibition
COc1cccc(-c2nnc(SCC(=O)Nc3cc(C)on3)o2)c1 | inconclusive: 89.1 µM [inhibitor, partial curve, poor fit] | –
Cc1cc2c(c(=O)n1Cc1cccnc1)C(c1cccs1)C(C#N)=C(N)O2 (stereo unspecified) | – | inactive: -5.49% [at 0.501 µM]
CC(CCc1ccccc1)NC(=O)c1ccc(-n2cncn2)c([N+](=O)[O-])c1 (stereo unspecified) | – | inactive: -6.68% [at 2.33 µM]
CCOC(=O)CN1N=C(/C=C/c2ccc(C(C)C)cc2)CCC1=O | inactive | –
CN=C1C([N+](=O)[O-])=CC=C2C1=NC1(CCCCC1)N2O | inconclusive: 8.91 µM [inhibitor, partial curve, poor fit] | –
CC(=O)c1ccccc1NS(=O)(=O)c1ccc2c(c1)CC(=O)N2 | inconclusive: 10 µM [inhibitor, partial curve, poor fit] | –
CC(C)n1c(SCCCc2ccccc2)nc2c1c(=O)[nH]c(=O)n2C | active: 35.5 µM | –
CCCn1c(NCc2ccccn2)nc2ccccc21 | active: 5.62 µM | –
Fc1ccc(N/N=C/c2ccncc2)c(F)c1 | inconclusive: 89.1 µM [inhibitor, single point] | –
Cc1ccc(OCC(=O)OC2=C(C(=O)c3ccccc3)N(C)S(=O)(=O)c3ccccc32)cc1 | active: 20 µM | –
O=C(CSc1nnc(-c2ccc(Cl)cc2)n1-c1ccccc1)N/N=C/c1ccccc1C(=O)O | inconclusive: 44.7 µM [inhibitor, partial curve, poor fit] | –
CN(Cc1ccco1)S(=O)(=O)c1ccc(CN2C(=O)c3cccnc3C2=O)s1 | inconclusive: 89.1 µM [inhibitor, single point] | –
O=C(NCCc1ccccc1)C(=O)NCC1CCNCC1 | inactive | –
CCC1Oc2ccccc2N(CC(=O)NCCCN2CCN(c3ccc(OC)cc3)CC2)C1=O (stereo unspecified) | inconclusive: 89.1 µM [inhibitor, single point] | –
O=C(N/N=C/c1cc([N+](=O)[O-])ccc1O)C12CC3CC(CC(C3)C1)C2 | inactive | –
CN1CCCCc2c1nc1ccccc1c2N (tested in a mixture with another compound) | inconclusive: 56.2 µM [inhibitor, partial curve, poor fit] | –
O=C(CCc1c[nH]c2ccccc12)N1CCN(S(=O)(=O)c2ccc(F)cc2)CC1 | inconclusive: 89.1 µM [inhibitor, partial curve, poor fit] | –
Cc1ccc2sc(N3CCN(CCNC(=O)c4ccco4)CC3)nc2c1C | active: 44.7 µM | –
Cc1ccc(C)c2[nH]c(=O)c(CCNC(=O)c3ccco3)cc12 | inconclusive: 89.1 µM [inhibitor, single point] | –
Cc1ccc(-n2nnc(-c3nc(-c4cccs4)no3)c2N)c(C)c1 | inactive | –
O=C(Nc1cccnc1)c1ccc(NC(=O)c2ccco2)cc1 | inconclusive: 10 µM [inhibitor, partial curve, poor fit] | –
O=S(=O)(Nc1cccc(C(F)(F)F)c1)c1ccc(-c2cnc(C3CC3)o2)cc1 | inactive | –
O=C(NNC(=S)NCc1ccco1)c1cccs1 | inconclusive: 79.4 µM [inhibitor, single point] | –
CCN(CC)CCN(C(=O)c1ccc(C(C)=O)cc1)c1nc2ccc(Cl)cc2s1 | inconclusive: 2.51 µM [inhibitor, partial curve, poor fit] | –

Structure (SMILES) | Potency | activity, negative = inhibition
Cc1ccc(N2CCN(c3ncccc3[N+](=O)[O-])CC2)c(C)c1 | active: 17.8 µM | –
CC(C)c1ccc(OCC(=O)Nc2c(C(=O)c3ccc(F)cc3)oc3ccccc23)cc1 | inactive | –
CC(C)N=C1NN=C(c2ccc(Cl)c(Cl)c2)CS1 | active: 44.7 µM | –
O=C(O)/C=C/c1ccc(S(=O)(=O)N2CCCCCC2)cc1 | inactive | –
O=C(NNC(=S)NC(=O)c1ccccc1[N+](=O)[O-])c1ccccc1Cl | inconclusive: 25.1 µM [inhibitor, single point] | –
CCOc1c(C)cnc2c1c(=O)n(Cc1ccccc1F)c(=O)n2C | inactive | –
CCn1c(COc2ccc(=O)n(-c3ccccc3)n2)n[nH]c1=S | active: 25.1 µM | –
COc1cccc(CN(C)C(=O)Cc2ccc(OC)c(S(=O)(=O)N3CCOCC3)c2)c1 | – | inactive: 0.127% [at 12.7 µM]
CCN(CC)CCCn1c2c(c(SCC(=O)Nc3ccc(F)c(F)c3)nc1=O)CCC2 | inactive | –
COc1ccccc1NC(=O)CC(c1cc(OC)c(OC)c(OC)c1)N1Cc2ccccc2C1=O (stereo unspecified) | inconclusive: 4.47 µM [inhibitor, partial curve, poor fit] | –
CC(=O)Nc1ccc(S(=O)(=O)NCCNS(=O)(=O)c2ccc(NC(C)=O)cc2)cc1 | inconclusive: 79.4 µM [inhibitor, single point] | –
COc1ccc(S(=O)(=O)NCc2cccn2Cc2cccc(C)c2)cc1 | inactive | –
Cc1ccc(N/N=C(\Cc2nc3ccccc3[nH]2)c2ccccc2)cc1 | active: 7.08 µM | –
Cc1ccc(Nc2c(-c3ccsc3)nc3c(C)cccn23)cc1 | inconclusive: 10 µM [inhibitor, partial curve, poor fit] | –
O=C(Oc1cccc(C(=S)N2CCOCC2)c1)c1cc([N+](=O)[O-])cc([N+](=O)[O-])c1 | active: 35.5 µM | –
CN1CCN(c2ccc(S(=O)(=O)N3CCCCC3)cc2N)CC1 | inconclusive: 12.6 µM [inhibitor, single point] | –
O=C(CNC(=O)c1cccc(F)c1)N/N=C/c1ccc(O)c([N+](=O)[O-])c1 | inactive | –
CCOC(=O)C1=C(COC(=O)COc2cc(C)ccc2C)NC(=O)NC1C (stereo unspecified) | – | inactive: 12.2% [at 0.501 µM]
CC(=O)Nc1sc(N/N=C/c2ccccc2)nc1-c1ccc(C)cc1 | active: 15.8 µM | –
Cc1c(C)n(C)c2ccc(C(=O)NCc3cccc(F)c3)cc12 | inconclusive: 31.6 µM [inhibitor, single point] | –
COc1ccc(C)cc1NC(=O)CN1CCN(C/C=C/c2ccccc2)CC1 | inconclusive: 20 µM [inhibitor, full curve, poor fit] | –
O=C(Nc1ccc(F)cc1)c1ccc(-n2cncn2)c([N+](=O)[O-])c1 | inconclusive: 15.8 µM [inhibitor, partial curve, poor fit] | –
COc1ccc(NC(=O)CN(C)C(=O)c2cccc(-n3cccc3)c2)cc1 | active: 44.7 µM | –
